The source of these data is publication PMC9911399, “Two distinct binding modes provide the RNA-binding protein RbFox with extraordinary sequence specificity”.

To fix the notation:
T1: RBFOX1 RRM RbFoxmut (Fox-RRM*) (Homo sapiens, UniProt Q9NWB1 109-208, R118D;E147R;N151S;E152T)
T1 sequence: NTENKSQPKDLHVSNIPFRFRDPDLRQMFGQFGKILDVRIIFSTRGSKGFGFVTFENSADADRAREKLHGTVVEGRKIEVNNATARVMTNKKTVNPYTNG

B1: AUGGGAG (DNA:RNA)
RNA: GGGAGACCGGAAUUCAGAUUGUCCAUGGGAGUUAAAUCCCGUCGUAGCCACCA
DNA 1: CAATCTGAATTCCGGTCTCCC
DNA 2: TGGTGGCTACGACGGGATT
B2: CUCGGCC (DNA:RNA)
RNA: B1 RNA with A25C, G27C, A30C, G31C
DNA 1: CAATCTGAATTCCGGTCTCCC
DNA 2: TGGTGGCTACGACGGGATT
B3: ACCAGAU (DNA:RNA)
RNA: B1 RNA with U26C, G27C, G28A, G31U
DNA 1: CAATCTGAATTCCGGTCTCCC
DNA 2: TGGTGGCTACGACGGGATT
B4: GAUAUAC (DNA:RNA)
RNA: B1 RNA with A25G, U26A, G27U, G28A, G29U, G31C
DNA 1: CAATCTGAATTCCGGTCTCCC
DNA 2: TGGTGGCTACGACGGGATT
B5: UCCUACG (DNA:RNA)
RNA: B1 RNA with A25U, U26C, G27C, G28U, G29A, A30C
DNA 1: CAATCTGAATTCCGGTCTCCC
DNA 2: TGGTGGCTACGACGGGATT
B6: CGCACCA (DNA:RNA)
RNA: GGGAGACCGGAAUUCAGAUUGUCCCGCACCAUUAAAUCCCGUCGUAGCCACCA
DNA 1: CAATCTGAATTCCGGTCTCCC
DNA 2: TGGTGGCTACGACGGGATT
B7: UCUGGGC (DNA:RNA)
RNA: B1 RNA with A25U, U26C, G27U, A30G, G31C
DNA 1: CAATCTGAATTCCGGTCTCCC
DNA 2: TGGTGGCTACGACGGGATT
B8: CACUCGC (DNA:RNA)
RNA: B6 RNA with G26A, A28U, C30G, A31C
DNA 1: CAATCTGAATTCCGGTCTCCC
DNA 2: TGGTGGCTACGACGGGATT
B9: GCUGCCU (DNA:RNA)
RNA: B6 RNA with C25G, G26C, C27U, A28G, A31U
DNA 1: CAATCTGAATTCCGGTCTCCC
DNA 2: TGGTGGCTACGACGGGATT
B10: UUAGUCU (DNA:RNA)
RNA: B1 RNA with A25U, G27A, G29U, A30C, G31U
DNA 1: CAATCTGAATTCCGGTCTCCC
DNA 2: TGGTGGCTACGACGGGATT
B11: AGCGUGG (DNA:RNA)
RNA: B1 RNA with U26G, G27C, G29U, A30G
DNA 1: CAATCTGAATTCCGGTCTCCC
DNA 2: TGGTGGCTACGACGGGATT
B12: GCAAAUU (DNA:RNA)
RNA: B6 RNA with C25G, G26C, C27A, C29A, C30U, A31U
DNA 1: CAATCTGAATTCCGGTCTCCC
DNA 2: TGGTGGCTACGACGGGATT
B13: AUAUAAU (DNA:RNA)
RNA: B1 RNA with G27A, G28U, G29A, G31U
DNA 1: CAATCTGAATTCCGGTCTCCC
DNA 2: TGGTGGCTACGACGGGATT
B14: AUUCUCC (DNA:RNA)
RNA: B1 RNA with G27U, G28C, G29U, A30C, G31C
DNA 1: CAATCTGAATTCCGGTCTCCC
DNA 2: TGGTGGCTACGACGGGATT
B15: AGGACGC (DNA:RNA)
RNA: B6 RNA with C25A, C27G, C30G, A31C
DNA 1: CAATCTGAATTCCGGTCTCCC
DNA 2: TGGTGGCTACGACGGGATT
B16: AUGAUUG (DNA:RNA)
RNA: B1 RNA with G28A, G29U, A30U
DNA 1: CAATCTGAATTCCGGTCTCCC
DNA 2: TGGTGGCTACGACGGGATT
B17: CCGAAGU (DNA:RNA)
RNA: B6 RNA with G26C, C27G, C29A, C30G, A31U
DNA 1: CAATCTGAATTCCGGTCTCCC
DNA 2: TGGTGGCTACGACGGGATT
B18: CUAAAUG (DNA:RNA)
RNA: B1 RNA with A25C, G27A, G28A, G29A, A30U
DNA 1: CAATCTGAATTCCGGTCTCCC
DNA 2: TGGTGGCTACGACGGGATT
B19: UUAGGGU (DNA:RNA)
RNA: B1 RNA with A25U, G27A, A30G, G31U
DNA 1: CAATCTGAATTCCGGTCTCCC
DNA 2: TGGTGGCTACGACGGGATT
B20: CGAUUCG (DNA:RNA)
RNA: B6 RNA with C27A, A28U, C29U, A31G
DNA 1: CAATCTGAATTCCGGTCTCCC
DNA 2: TGGTGGCTACGACGGGATT

Positions count from the first letter of the chain named. The list shows a part of the results.

This test addresses T1, RBFOX1 RRM RbFoxmut (Fox-RRM*). In words: EMSA; HiTS-Eq, 1 nM pool, 10 min; buffer printed only for the single-RNA assays: 10 mM Tris pH 7.5, 150 mM NaCl, 3.4 mM EDTA, 0.001% NP-40, 30 C. The conditions noted are these: tags: His6 N-terminal (pET28a); label: 5' 32P. In outline:
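Relative association constants, normalised to the cognate motif, were derived by comparing read counts of each RNA species with those of the control reaction. The RNA sequenced was the free fraction, separated by 8% native PAGE after a 10 min equilibration in 50 µL of 1 nM 5′-radiolabelled RNA (7 randomized nucleotides) with increasing concentrations of purified wild-type or mutant RbFox RRM.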
(Mobility shift assays separate free from complexed probe on a gel.)
Turning to B1, the binding signal is 0.142 KA relative to UGCAUGU.

On to B2, for which the binding signal was 0.195 KA relative to UGCAUGU.

Take B3: the binding signal is 0.0877 KA relative to UGCAUGU.

B4: the binding signal was 0.0885 KA relative to UGCAUGU. Under B5 stands 0.109 KA relative to UGCAUGU; under B6, 0.103 KA relative to UGCAUGU; under B7, 0.0756 KA relative to UGCAUGU. The value for B8 was 0.0994 KA relative to UGCAUGU; that for B9 was 0.0709 KA relative to UGCAUGU. Turning to B10, the binding signal was 0.0656 KA relative to UGCAUGU. Under B11 stands 0.125 KA relative to UGCAUGU. The value for B12 was 0.0732 KA relative to UGCAUGU. With B13, the binding signal was 0.0852 KA relative to UGCAUGU. Under B14 stands 0.0686 KA relative to UGCAUGU; under B15, 0.0861 KA relative to UGCAUGU; under B16, 0.428 KA relative to UGCAUGU.

Turning to B17, the binding signal was 0.106 KA relative to UGCAUGU. The value for B18 was 0.0852 KA relative to UGCAUGU. Regarding B19, the binding signal is 0.0623 KA relative to UGCAUGU. Under B20 stands 0.163 KA relative to UGCAUGU.
